The values below come from PubChem BioAssay AID1745853 (National Center for Advancing Translational Sciences (NCATS), 2022).

Common to all, as to experiment: Primary Screen for Target Class Profiling of Small Molecule Inhibitors of Methyltransferases
The target of assay [1] is Glycine N-methyltransferase (Homo sapiens) (UniProt Q14749). As to conditions: purified enzyme, MTase-Glo SAH luminescence; measured here: GNMT inhibition; at 40 µM; stronger effect = lower value. The method, boiled down:
(§1)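 Each enzyme was assayed with SAM and its substrate. SAH formation detected by MTase-Glo luminescence; single-point 40 uM screen[…].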

The target in assay [2] is Guanidinoacetate N-methyltransferase (Homo sapiens) (UniProt Q14353). As to conditions: purified enzyme, MTase-Glo SAH luminescence; measured here: GAMT inhibition; at 40 µM; stronger effect = lower value. The method in brief:
as §1

Assay [3] deals with Histamine N-methyltransferase (Homo sapiens) (UniProt P50135). As to conditions: purified enzyme, MTase-Glo SAH luminescence; measured here: HNMT inhibition; at 40 µM; stronger effect = lower value. The method, boiled down:
as §1

Assay [4] concerns the target Nicotinamide N-methyltransferase (Homo sapiens) (UniProt P40261). As to conditions: purified enzyme, MTase-Glo SAH luminescence; measured here: NNMT inhibition; at 40 µM; stronger effect = lower value. The method, boiled down: as §1
The target in assay [5] is Phenylethanolamine N-methyltransferase (Homo sapiens) (UniProt P11086). As to conditions: purified enzyme, MTase-Glo SAH luminescence; measured here: PNMT inhibition; at 40 µM; stronger effect = lower value. The method in brief:
as §1

Where “and” joins values, the source holds several entries; their conditions need not be identical. Equal values may be shown once. The list shows a part of the results. These are further read-outs of the screen, such as a control signal, another cell line or another target. No call is given for them.
% is scaled to controls: 0 for no effect and ±100 for the full control effect.

For `C=C(C)C(=O)OC1CC2(C)OC(=CC2=O)C(=C)CC2OC(=O)C(COC)C12` (stereo not drawn), the activity change, negative = inhibition was -0.694% in assay [1]; 2.22% in assay [2]; 8.91% in assay [3]; -9.71% in assay [4]; -3.23% in assay [5].
With `Cc1ccc(NC(=O)CSc2nnc3n(CCCOC(C)C)c(=O)c4ccccc4n23)cc1C`, the activity change, negative = inhibition in assay [1] turned out to be 3.33%; in assay [2] it was 0.302%; in assay [3], 7.36%; in assay [4], 0.358%; in assay [5], 1.79%.
In the case of `CC1(C(=O)O)CCCC2(C)C3CCC4CC3(CCC12)CC4(O)CO` (stereo not drawn), the activity change, negative = inhibition is -5.25% in assay [1]; -6.29% in assay [2]; -0.38% in assay [3]; -15.9% in assay [4]; -14.3% in assay [5].
As to `COc1ccc(Cl)cc1S(=O)(=O)Nc1ccc2[nH]c(=O)[nH]c2c1`, the activity change, negative = inhibition in assay [1] is -7.04%; in assay [2] it was 3.78%; in assay [3], -2.16%; in assay [4] it was -1.28%; in assay [5] it was -17.9%.
For `COc1cccc(CN2C[C@@H](CO)[C@H](NC(=O)C3CC3)C2)n1`, the activity change, negative = inhibition in assay [1] was -2.16%; in assay [2] it was -1.47%; in assay [3] it was -0.563%; in assay [4], -3.69%; in assay [5], -0.06%.
On to `CC1CCCC(NC(=O)C2(C)Cn3c(nc4ccccc43)C(=O)N2CCc2ccc(Cl)cc2)C1C` (stereo not drawn), for which the activity change, negative = inhibition was 3.77% in assay [1]; 0% in assay [2]; 3.42% in assay [3]; 6.69% in assay [4]; -3.6% in assay [5].
On to `CC1(C(=O)NC2CCCCCCC2)Cn2c(cc3sccc32)C(=O)N1Cc1ccc(F)cc1` (stereo not drawn), for which the activity change, negative = inhibition in assay [1] is -10.6%; in assay [2], 4.28%; in assay [3], -1.97%; in assay [4] it was -11.6%; in assay [5] it was -4.88%.
On the same counts, the results for `CS(=O)(=O)N1CCC(OC2CCN(C(=O)Nc3ccccc3C(F)(F)F)CC2)CC1` are -0.178%, -6.7%, 2.05%, -2.06% and 1.72%.
On the same counts, the results for `COc1ccc(CNC(=O)Cn2nc3n(Cc4ccc(F)cc4)c(=O)c4ccccc4n3c2=O)cc1` are -0.745%, 4.88%, 3.09%, -3.69% and -1.18%.
For `COc1ccc2cc1Nc1ccc(cc1)C[C@H](NCc1ccc3c(c1)CCO3)C(=O)N(C)[C@H](C(=O)NCCC(C)C)C2`, the activity change, negative = inhibition in assay [1] was -3.32%; in assay [2], 0.558%; in assay [3], 0.986%; in assay [4] it was -7.24%; in assay [5], -2.12%.
On to `O=C(CCn1ccc2cc(S(=O)(=O)N3CCCCC3)ccc21)NCC1CCCO1` (stereo not drawn), for which the activity change, negative = inhibition in assay [1] stood at 6.54%; in assay [2], 0.785%; in assay [3], 4.92%; in assay [4] it was 8.46%; in assay [5], 4.27%.
In the case of `NC(=O)c1c(OCc2c(F)cc(Br)cc2F)nsc1NC(=O)NCCCCN1CCCC1`, the activity change, negative = inhibition in assay [1] was -7.34%; in assay [2], 9.54%; in assay [3] it was -22.8%; in assay [4], -18.5%; in assay [5] it was -0.75%.
In the case of `C=C1C(=O)O[C@@H]2CC(C)=C([C@@H](C)CCCOC(C)=O)[C@@H](O)[C@H]12`, the activity change, negative = inhibition in assay [1] is 2.22%; in assay [2] it was -0.412%; in assay [3], 6.38%; in assay [4], -8.28%; in assay [5] it was 4.03%.
For the compound `CCCn1c(=O)c2ccc(C(=O)NC(C)CC)cc2n2c(SCC(=O)c3ccc(F)cc3)nnc12` (stereo not drawn), the activity change, negative = inhibition turned out to be 6.42% in assay [1]; 0% in assay [2]; 12.6% in assay [3]; 5% in assay [4]; 7.54% in assay [5].
Regarding `COc1ccc(-c2cc3ncc(C)n3c(Nc3ncccc3C(N)=O)n2)cc1OC`, the activity change, negative = inhibition in assay [1] is -8.11%; in assay [2] it was 8.4%; in assay [3], 1.73%; in assay [4], -3.16%; in assay [5] it was 8.3%.
With `COc1ccc2c(c1)C(CN1CCN(c3ccc4oc(C(=O)O)cc4c3Cl)CC1)=CC(C)(C)CO2`, the activity change, negative = inhibition in assay [1] was -67.2%; in assay [2], -6.35%; in assay [3], -12.9%; in assay [4], -28.1%; in assay [5] it was -0.833%.
As to `CCOC(=O)[C@H](CCc1ccccc1)N[C@H]1CS[C@H](c2cccs2)CN(CC(=O)O)C1=O`, the activity change, negative = inhibition is -2.28% in assay [2], -18.3% in assay [4] and -4.3% in assay [5].
On to `O=C1NC(=O)/C(=C/c2ccc3nccnc3c2)S1`, for which the activity change, negative = inhibition in assay [1] is -7.94%; in assay [2], 4.14%; in assay [3] it was -1.9%; in assay [4], -6.17%; in assay [5], 5.69%.
As for `CCCn1c(=O)c2ccc(C(=O)NCC(C)C)cc2n2c(=O)n(CC(=O)c3ccc(C)cc3C)nc12`, the activity change, negative = inhibition is 1.26% in assay [1]; 3.23% in assay [2]; 4.86% in assay [3]; -1.17% in assay [4]; -0.773% in assay [5].
`O=C(O)Cc1c(-c2ccccc2)c2cc(Cl)ccc2[nH]c1=O`: the activity change, negative = inhibition in assay [1] was -9.16%; in assay [2], 0%; in assay [3] it was 10.6%; in assay [4] it was 6.84%; in assay [5], 1.87%.
Turning to `Cc1cccc(NC(=O)N2Cc3c(sc4c3CCCC4)-n3cccc3C2c2cc(F)cc(F)c2)c1` (stereo not drawn), the activity change, negative = inhibition in assay [1] was -2.71%; in assay [2] it was 0%; in assay [3], 7.77%; in assay [4], 6.55%; in assay [5], 6.51%.
With `CC(=O)Oc1ccc(C2Nc3ccc(C)cc3C3C=CCC32)c(OC(C)=O)c1` (stereo not drawn), the activity change, negative = inhibition in assay [1] is -8.36%; in assay [2] it was 1.57%; in assay [3] it was -0.1%; in assay [4], -0.874%; in assay [5], -11.2%.
Take `CCn1cc(CN2CCC(N3C(=O)C4(CCCCC4)C3c3ccncc3)CC2)cn1` (stereo not drawn): the activity change, negative = inhibition in assay [1] is 0.864%; in assay [2] it was -2.25%; in assay [3], -8.18%; in assay [4] it was -3.36%; in assay [5], -4.09%.
The corresponding values for `COc1ccccc1CNC(=O)C1(C)Cn2nc(-c3ccccc3)cc2C(=O)N1c1ccc(C(C)C)cc1` (stereo not drawn) are 8.01%, 0.498%, 11.2%, 14.6% and 2.9%.
For the compound `COc1cc(C)c(-c2nc(Cn3cccn3)c(C)o2)cc1C`, the activity change, negative = inhibition in assay [1] is -2.62%; in assay [2] it was 0.427%; in assay [3], -0.065%; in assay [4], -5.23%; in assay [5], -2.94%.
For `CCNC(=O)N1CCC(N2C(=O)C3(CCCC3)C2c2ccccc2)CC1` (stereo not drawn), the activity change, negative = inhibition is -0.817% in assay [1]; 3.69% in assay [2]; 3.93% in assay [3]; -5% in assay [4]; 10.9% in assay [5].
`OC[C@H]1O[C@@H](Oc2cc(O)cc(/C=C/c3ccc(O)cc3)c2)[C@H](O)[C@@H](O)[C@@H]1O`: the activity change, negative = inhibition is -3.32% in assay [1]; 1.88% and -5.12% in assay [2]; 8.16% in assay [3]; -13.2% and -17.8% in assay [4]; 3.06% and -9.16% in assay [5].
For the compound `O=C(Cn1c(=O)oc2cc(S(=O)(=O)NCc3ccccc3)ccc21)NC1CCCC1`, the activity change, negative = inhibition is -3.53% in assay [1]; 2.77% in assay [2]; 2.9% in assay [3]; 2.67% in assay [4]; -6.92% in assay [5].
On the same counts, the results for `CCCn1c(=O)c2ccc(Cl)cc2n2c(SCC(=O)Nc3ccccc3OC)nnc12` are -1.47%, 2.36%, -0.141%, -2.96% and -1.35%.
For the compound `Cc1ccc(CCNC(=O)CCn2ccc3cc(S(=O)(=O)N4CCCCC4)ccc32)cc1`, the activity change, negative = inhibition was found to be 2.9% in assay [1]; 0% in assay [2]; 4.64% in assay [3]; 4.65% in assay [4]; 1.65% in assay [5].
